# Measurements as given in the supplement of paper PMC10185492.
# Some of the results follow. Values come from read counts of a selection and are noisy.
# System: SARS-CoV-2 3CLpro (nsp5)
# Assay: substrate phage enrichment score (protease-eluted vs HEPES control, +1 offset) (ratio); higher = better cleaved substrate
# Conditions: selection round: 4; protease elution time: 15 min
# Protocol: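 Random heptapeptide substrate phage display (M13 pIII fusion, heptapeptide between an N-terminal biotinylated AviTag GLNDIFEAQKIEWHE and pIII; phages immobilised on streptavidin) eluted by cleavage with 50 nM protease in 20 mM HEPES at 37 °C. Selected phages were NGS sequenced, and the enrichment score is (reads in protease sample + 1)/(reads in HEPES blank-selection control + 1).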
row,Substance,substrate phage enrichment score
1,TSCLHGV,> 50
2,GSAEFNG,4.56
3,QQTNRTN,> 168
4,SAAAHQQ,1.85
5,KGHMTPS,12.5
6,TGGCTWS,> 24
7,TRPRTKD,3.83
8,KAQNIGH,> 22
9,ATSDVWQ,2.8
10,QHQPAPG,> 30
11,YGPAMST,> 21
12,GRYLPVT,0.08
13,SRNRCPL,> 24
14,PAQVGPP,0.236
15,SQTTHLQ,28
16,PPHYEGA,1.18
17,SDRGDLW,> 24
18,ASKTRPG,> 37
19,GLRAGFC,> 21
20,VTPKMTL,1.73
21,GSAAAHQ,1.61
22,EHKEDDR,16.5
23,REKNDSP,12
24,IESKQNL,> 37
25,PDDSYGI,0.316

row,Substance,substrate phage enrichment score
1,SYSIREQ,> 32
2,PKLQAGR,> 27
3,SSHEPRE,4
4,WWQNPPP,3.17
5,EPSSCAR,0.321
6,GSARPRD,6.75
7,QVECTTP,> 24
8,ASGAGQK,> 23
9,TSSTLNQ,> 30
10,RCSDAYG,> 25
11,KNLCLEP,0.625
12,IRSNRLG,3.17
13,RIQNATS,> 35
14,TGKSDSE,0.316
15,NSQLEAH,> 34
16,SVESIGR,1.9
17,RAKEPAT,1.2
18,TEAGMGR,> 23
19,RGNKYNR,14
20,SRSTSLQ,> 21
21,ICEPYMN,1.04
22,VGSTDMI,0.833
23,AMLQSKS,> 35
24,QHSTNVA,6.67
25,QTDASWS,0.0769

row,Substance,substrate phage enrichment score
1,AQGACIH,> 25
2,PEHCQLD,11.5
3,LTGSSCP,3.17
4,RHPQCQP,> 27
5,SQTPQES,0.0714
6,RAGCKAA,15.7
7,AARTQNW,5.38
8,TCRTTLQ,190
9,YDRPKDW,> 29
10,CLIRDLR,1.52
11,VVPSVTS,10.5
12,ERFGSNP,11.5
13,QTIKLQA,> 120
14,QRGQMSE,11.7
15,IFRCVCR,> 36
16,WTDYRLS,2.46
17,ETAGPEA,17
18,RSKQAPY,1.55
19,ASGTMQP,> 25
20,DSSGAMG,2.09
21,NRCKCPV,0.227
22,QRSTLQS,> 35
23,CKESSNW,5.5
24,AGHCKKN,1.2
25,HGTRNRG,> 21

row,Substance,substrate phage enrichment score
1,SASLPRQ,35.5
2,PAHHHGA,1.42
3,CPAAHHH,0.997
4,AAAHHQH,1.18
5,VHRGPPE,> 29
6,HGEVPAG,2
7,SCSSAPR,> 40
8,QQQSLIS,0.682
9,QTSCNVC,3.23
10,YRESSCN,> 21
11,SNPNRDA,> 26
12,TDLNALF,5.44
13,LPQRENI,0.087
14,NHPTGRQ,0.565
15,PEVWTES,0.471
16,AAGRYTG,2.29
17,SSAVKSP,> 30
18,TRSNLTG,> 105
19,NSWCSGP,7.5
20,EGAAHHH,4
21,AQCLFQE,0.778
22,PKGCTVG,> 30
23,RRESHKS,> 146
24,GIPPYAQ,2.04
25,KGTLKPL,> 22

row,Substance,substrate phage enrichment score
1,FQHGYQG,2.4
2,REPKCTR,0.533
3,TTEFAEP,1.25
4,DQALKFW,> 45
5,CTAAHHH,0.869
6,LGAQKAA,1
7,DEVEQFP,4.8
8,TPSSKLQ,> 54
9,QLYCNPE,6.33
10,RRWATLQ,> 40
11,FLGPRLQ,> 21
12,QPQDAAS,3.6
13,TGAGSIP,> 24
14,NSNEPYV,> 28
15,NYKGQGP,> 23
16,YLNSKTP,> 54
17,LGSATLQ,> 23
18,NDGSVGH,1.04
19,ANTIKAR,1.85
20,GDHNKAQ,0.966
21,GALRCRD,0.692
22,SSAREGC,1.12
23,DFFDAGN,0.231
24,THPVASD,> 69
25,PPENTWC,> 29

row,Substance,substrate phage enrichment score
1,EPTQCRA,1.36
2,DPSKAWR,2.43
3,TTNLLKS,0.818
4,KCTQSGL,> 28
5,NRDGVPG,7.25
6,HPVSKVQ,1.82
7,GKAAHHH,0.957
8,TRGEPQR,> 44
9,VNFQGGS,2.4
10,QRLRWPN,18.5
11,SKLKSQG,9.2
12,GANHSPS,> 21
13,QQTLRTQ,0.917
14,KDWRYSG,0.258
15,IPRGSRT,> 22
16,RATLQSR,> 30
17,CVGLTYS,> 22
18,HQTSDHH,1.41
19,PVQCHLQ,24.7
20,QSFTHCR,2.52
21,NEQLRCP,5.38
22,IYGPLGS,> 39
23,PAGSNHV,7
24,HYIHHHH,12
25,PGAGVGR,> 24

row,Substance,substrate phage enrichment score
1,PCYAGCT,> 30
2,SRISSWQ,> 21
3,DSKQKAN,10.8
4,ASGQSMM,17.3
5,HPYFQGG,0.571
6,LPKLQST,46
7,TSHKTLC,> 34
8,LPAAHHH,0.635
9,AVGEYIN,1.12
10,GPWVSSP,13
11,EQVSQLQ,> 52
12,QCEFNLQ,1.5
13,YRTRLQS,> 125
14,HQHTAHP,0.714
15,MHFQGGS,0.75
16,TRSDGET,2
17,SWCTVPK,37.5
18,RRPHVHT,2
19,HHVNSVD,6.82
20,QPAKPSG,1.75
21,SPGFQNR,> 48
22,QATVFCH,2.42
23,AAENMIN,> 37
24,RSTQQAA,5.3
25,HAKAHKS,1.22

row,Substance,substrate phage enrichment score
1,HLRTAPD,4.5
2,YSRCLLQ,> 93
3,ENKTLLQ,> 25
4,LENNLPR,> 29
5,GTHGDNA,> 41
6,SDPVWMA,19.5
7,VWAGAPW,3.33
8,EAAVILQ,> 41
9,YPAAHHH,0.809
10,CSEYKRY,> 113
11,QPVIERQ,30
12,TSRGRLQ,> 25
13,YGLNYYR,4.3
14,PGEYVQP,0.619
15,HESYARF,14.6
16,ALRTQLQ,154
17,PCWVWRS,> 38
18,STSHGGR,6
19,SRLQAAC,35.5
20,PKANLWD,> 28
21,RVINDGV,> 33
22,KRTIMPC,2.29
23,SQPSPNL,11.5
24,YSSHQTQ,7.7
25,RDGTSLQ,> 88

row,Substance,substrate phage enrichment score
1,CAAAQHN,0.938
2,TDWSPTH,> 33
3,SGPYCLE,> 30
4,DDRRPAL,> 28
5,NSYLNMP,1.54
6,SAPPGSG,> 29
7,WTQENST,> 60
8,TDFQGGS,0.395
9,AINSQEG,0.714
10,SRINLRA,3.64
11,ASHACMQ,> 24
12,EEETITR,5.69
13,KASGTAA,30.8
14,WPSEAIV,> 49
15,SNEPTSQ,1.85
16,PLDKSKS,> 23
17,TGDLKNA,> 32
18,MWSTDEK,3.5
19,SVRDLRC,11
20,PDHNLTH,0.811
21,SVDSATP,> 21
22,LTETSVW,6.33
23,TYYKNSQ,1.6
24,STQPVRP,> 23
25,NNHHHGA,0.08

row,Substance,substrate phage enrichment score
1,EALHGDR,0.917
2,EVYLNEN,> 202
3,CRESAGV,0.875
4,CEPNVPN,8
5,ESLWGTF,3.4
6,KGVGNLP,0.1
7,LSGQHPC,5.4
8,ANFQGGS,5.89
9,NSTWTSQ,> 23
10,SNFAAPD,> 40
11,TGAAHHH,0.4
12,RRESRTQ,13
13,GSINRTP,3.4
14,RQGWPIT,> 22
15,SNVNLST,4.8
16,TQCGATG,8.44
17,ATLQSKM,> 90
18,NGLSQYR,3.25
19,KQGREIS,0.444
20,CLQSDAR,> 22
21,YKKQISC,0.833
22,PQLRASK,> 22
23,TQTLQPH,> 28
24,PCTEPLT,> 52
25,RLTSPNE,2.5

row,Substance,substrate phage enrichment score
1,LNNHNAR,3.06
2,KCHSPVE,0.182
3,HPASMTV,> 36
4,MQCPSNL,4
5,HGTPLLQ,> 27
6,KEAAHHH,0.824
7,SYFQGGS,2.23
8,LRLPHFQ,> 22
9,RSDNAIG,> 29
10,PGSEQIP,> 23
11,GNFPAQN,1.29
12,NYNTLQR,2.64
13,LADPKLM,12
14,HSEGWQC,0.889
15,CAPWNTP,1.3
16,DTQGGSA,0.875
17,TPILQAQ,411
18,SPKTTGS,> 29
19,ICKAPEN,0.129
20,PYECTPG,5.71
21,AQWINSE,2
22,SRVTLPC,> 42
23,LQCGGQK,> 24
24,TGKPGLG,1.89
25,EHCKIQR,> 55

row,Substance,substrate phage enrichment score
1,FRPHIII,1.24
2,IQSSTLI,1.69
3,LKDRDPR,> 21
4,SPSLSVQ,3.1
5,RTLGEKQ,0.389
6,RGSAAAH,0.273
7,PASTMGQ,> 310
8,QQLSTTV,0.368
9,CLVRIIR,0.5
10,EARPMSS,> 21
11,QRHTTSV,4.42
12,EQVPRNL,2.86
13,FCSDRYP,> 25
14,VETRLHQ,> 23
15,SRGRCGL,> 41
16,TSAKTQE,0.438
17,QHSPKLQ,> 41
18,RIFRVVV,4.79
19,RSTCFQG,> 27
20,VALQSGS,> 89
21,GYLNPAM,5.5
22,RRSPHHW,4
23,TPNEPGT,6.67
24,AGTKARV,1.75
25,QMCVPTD,> 76

row,Substance,substrate phage enrichment score
1,PRWKEQS,> 38
2,SHLLRES,0.222
3,RPHICSC,> 23
4,SWRSVEP,> 46
5,SCKHDQP,> 40
6,HGAAHHH,0.607
7,HSRDAQY,0.225
8,PAQQGGA,5.5
9,DKAAHHH,0.771
10,PSAAHHH,0.879
11,MRQIPSE,1.42
12,GRLPCGR,3.33
13,HVPRGNP,16
14,TSECSAR,> 35
15,VVRWPGR,0.471
16,KQVTTPW,1.88
17,YAGDGER,> 22
18,PGAAKHC,4.17
19,TDKQESS,4.67
20,DQVSTKK,2.5
21,RQASQYG,1.45
22,SPDFRSK,2.55
23,RCPATGM,10.8
24,PMEGKAP,6.25
25,PCRPTNH,7.5

row,Substance,substrate phage enrichment score
1,APAAQLQ,> 44
2,CKPTPDH,> 23
3,TKLNLNG,0.565
4,MRVINDE,0.812
5,VPYVPRA,2
6,SDRWSTK,1.27
7,SKTRVSQ,4.29
8,QFSTTLQ,> 62
9,CTIPQPP,> 28
10,MRESPPK,7
11,QNVVGRH,1.81
12,YAGSAAA,4
13,SPTAHHH,0.25
14,RQSNNDR,0.692
15,SAAAHHH,0.703
16,IGARLHA,6.33
17,VTNHHQS,> 24
18,QHHLPQR,> 21
19,TGAGARQ,> 35
20,TRDGMSA,2.5
21,ESRDRPT,0.864
22,DFSQPRW,11
23,LQRTWPN,12.7
24,NRAANGH,1.9
25,ASTLQSS,10.7

row,Substance,substrate phage enrichment score
1,GRRCTRQ,4.17
2,SQQQNRY,6.33
3,IAELPYR,4.67
4,ETKVSKQ,> 23
5,VLGHPTE,> 22
6,LRPATMQ,> 58
7,CTPCSNQ,> 159
8,AGPSYAQ,> 23
9,KFSVLQG,> 24
10,VGGSAAA,0.55
11,TSQTGAR,68
12,TLNFQGG,5
13,VHVHETI,2.29
14,HQAAHHH,0.792
15,SVTKPNS,0.438
16,TTRYQAD,1.19
17,YATSVSA,> 38
